# Test results published in the supplement of paper PMC8728848.
# Some of the results follow.
# B1: PX14375l-pdi-526-25-526 (Parabacteroides distasonis) (protein)
# chain: DEEPKSTLTDVAYYKTQSQMESNVNYLYRTGAIGSYVDFGSAYIGPFASIQEELTGYFSNSYEGQEIVCRYTRELTRQQNTMQLASKMDKVWDDCYRGINVANGAIKHMPEVPMDQATADRLTAEAKFFRAFNYFYLVKTFGAVPFYTDPYELAENMELPRTETSTIYNQIESDLKDAMNVLPEATFAANGHRITKYVAAMTLTDVYMYQHKYAEAAETVRIVVNSNHKLTTNDDLAMNSAFNKLRSTDDLDEAIYAYEYDNQISPSNWLPTYAFDGDASSNGLFGTYAITQKVHGPNDRYLNIYESNDLRRQPNQFYHWTYTNPKTGKVWNSVGNAACCWYYYDEDALLTTGRGTKDWNVYRYAEALLDAAESIAQSTGVTAEAAGYLAQVKARANMEGKTAAEIASSLQSMGKQAFIEECWTERLRELPLEFKMWDMCVRTGMFPNISETTPGQVTYIPLVGAKNASGATIKESDLLWPLSVNEIQRNPSLTQNEGYSAK
# Key:
# Test in all cases: glycan array binding signal (z-score within array); higher = stronger binding
# Details in all cases: glycan notation: IUPAC condensed, linker removed
# [1] = molecular target: Gal(b1-4)Glc
# Method in brief: (§1)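 The Consortium for Functional Glycomics database supplied 3228 glycan arrays, of which those lacking an available protein sequence were dropped. The binding signal, a within-array Z-score, was averaged across arrays of the same protein sequence and across linkers. Negative scores can be read as non-binding.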
# [2] = molecular target: Gal(b1-4)Glc6S
# Method in brief: as §1
# [3] = molecular target: Gal(b1-4)GlcNAc
# Method in brief: as §1
# [4] = molecular target: Gal(b1-4)GlcNAc(a1-6)Gal(b1-4)GlcNAc
# Method in brief: as §1
# [5] = molecular target: Gal(b1-4)GlcNAc(b1-2)Man
# Method in brief: as §1
# [6] = molecular target: Gal(b1-4)GlcNAc(b1-2)Man(a1-3)Man(b1-4)GlcNAc(b1-4)GlcNAc
# Method in brief: as §1
# [7] = molecular target: Gal(b1-4)GlcNAc(b1-2)Man(a1-3)[Gal(b1-4)GlcNAc(b1-2)Man(a1-6)]Man(b1-4)GlcNAc(b1-4)GlcNAc
# Method in brief: as §1
# [8] = molecular target: Gal(b1-4)GlcNAc(b1-2)Man(a1-3)[Gal(b1-4)GlcNAc(b1-2)Man(a1-6)]Man(b1-4)GlcNAc(b1-4)[Fuc(a1-6)]GlcNAc
# Method in brief: as §1
# [9] = molecular target: Gal(b1-4)GlcNAc(b1-2)Man(a1-3)[Gal(b1-4)GlcNAc(b1-2)Man(a1-6)][Gal(b1-4)GlcNAc(b1-4)]Man(b1-4)GlcNAc(b1-4)[Fuc(a1-6)]GlcNAc
# Method in brief: as §1
# [10] = molecular target: Gal(b1-4)GlcNAc(b1-2)Man(a1-3)[Gal(b1-4)GlcNAc(b1-2)Man(a1-6)][GlcNAc(b1-4)]Man(b1-4)GlcNAc(b1-4)[Fuc(a1-6)]GlcNAc
# Method in brief: as §1
# [11] = molecular target: Gal(b1-4)GlcNAc(b1-2)Man(a1-3)[GlcNAc(b1-2)Man(a1-6)]Man(b1-4)GlcNAc(b1-4)GlcNAc
# Method in brief: as §1
# [12] = molecular target: Gal(b1-4)GlcNAc(b1-2)Man(a1-3)[GlcNAc(b1-4)][Gal(b1-4)GlcNAc(b1-2)Man(a1-6)]Man(b1-4)GlcNAc(b1-4)GlcNAc
# Method in brief: as §1
# [13] = molecular target: Gal(b1-4)GlcNAc(b1-2)Man(a1-3)[Man(a1-6)]Man(b1-4)GlcNAc(b1-4)GlcNAc
# Method in brief: as §1
# [14] = molecular target: Gal(b1-4)GlcNAc(b1-2)Man(a1-6)Man(b1-4)GlcNAc(b1-4)GlcNAc
# Method in brief: as §1
# [15] = molecular target: Gal(b1-4)GlcNAc(b1-2)Man(a1-6)[GlcNAc(b1-2)Man(a1-3)]Man(b1-4)GlcNAc(b1-4)GlcNAc
# Method in brief: as §1
# [16] = molecular target: Gal(b1-4)GlcNAc(b1-2)Man(a1-6)[Man(a1-3)]Man(b1-4)GlcNAc(b1-4)GlcNAc
# Method in brief: as §1
# [17] = molecular target: Gal(b1-4)GlcNAc(b1-2)[Gal(b1-4)GlcNAc(b1-4)]Man(a1-3)[Gal(b1-4)GlcNAc(b1-2)Man(a1-6)]Man(b1-4)GlcNAc(b1-4)GlcNAc
# Method in brief: as §1
# [18] = molecular target: Gal(b1-4)GlcNAc(b1-2)[Gal(b1-4)GlcNAc(b1-4)]Man(a1-3)[Gal(b1-4)GlcNAc(b1-2)[Gal(b1-4)GlcNAc(b1-6)]Man(a1-6)]Man(b1-4)GlcNAc(b1-4)GlcNAc
# Method in brief: as §1
# [19] = molecular target: Gal(b1-4)GlcNAc(b1-2)[Gal(b1-4)GlcNAc(b1-4)]Man(a1-3)[GlcNAc(b1-4)][Gal(b1-4)GlcNAc(b1-2)Man(a1-6)]Man(b1-4)GlcNAc(b1-4)GlcNAc
# Method in brief: as §1
# [20] = molecular target: Gal(b1-4)GlcNAc(b1-2)[Gal(b1-4)GlcNAc(b1-4)]Man(a1-3)[GlcNAc(b1-4)][Gal(b1-4)GlcNAc(b1-2)[Gal(b1-4)GlcNAc(b1-6)]Man(a1-6)]Man(b1-4)GlcNAc(b1-4)GlcNAc
# Method in brief: as §1
# [21] = molecular target: Gal(b1-4)GlcNAc(b1-2)[Gal(b1-4)GlcNAc(b1-6)]Man(a1-6)[Gal(b1-4)GlcNAc(b1-2)Man(a1-3)]Man(b1-4)GlcNAc(b1-4)GlcNAc
# Method in brief: as §1
# [22] = molecular target: Gal(b1-4)GlcNAc(b1-2)[Gal(b1-4)GlcNAc(b1-6)]Man(a1-6)[Gal(b1-4)GlcNAc(b1-2)Man(a1-3)]Man(b1-4)GlcNAc(b1-4)[Fuc(a1-6)]GlcNAc
# Method in brief: as §1
# [23] = molecular target: Gal(b1-4)GlcNAc(b1-2)[Gal(b1-4)GlcNAc(b1-6)]Man(a1-6)[GlcNAc(b1-4)][Gal(b1-4)GlcNAc(b1-2)Man(a1-3)]Man(b1-4)GlcNAc(b1-4)GlcNAc
# Method in brief: as §1
# [24] = molecular target: Gal(b1-4)GlcNAc(b1-2)[Gal(b1-4)GlcNAc(b1-6)]Man(a1-6)[GlcNAc(b1-4)][Gal(b1-4)GlcNAc(b1-2)[Gal(b1-4)GlcNAc(b1-4)]Man(a1-3)]Man(b1-4)GlcNAc(b1-4)[Fuc(a1-6)]GlcNAc
# Method in brief: as §1
# [25] = molecular target: Gal(b1-4)GlcNAc(b1-3)Gal(b1-3)GalNAc
# Method in brief: as §1
# [26] = molecular target: Gal(b1-4)GlcNAc(b1-3)Gal(b1-3)GlcNAc
# Method in brief: as §1
# [27] = molecular target: Gal(b1-4)GlcNAc(b1-3)Gal(b1-4)Glc
# Method in brief: as §1
# [28] = molecular target: Gal(b1-4)GlcNAc(b1-3)Gal(b1-4)GlcNAc
# Method in brief: as §1
# [29] = molecular target: Gal(b1-4)GlcNAc(b1-3)Gal(b1-4)GlcNAc(b1-2)Man(a1-3)[Gal(b1-4)GlcNAc(b1-3)Gal(b1-4)GlcNAc(b1-2)Man(a1-6)]Man(b1-4)GlcNAc(b1-4)GlcNAc
# Method in brief: as §1
# [30] = molecular target: Gal(b1-4)GlcNAc(b1-3)Gal(b1-4)GlcNAc(b1-2)Man(a1-3)[Gal(b1-4)GlcNAc(b1-3)Gal(b1-4)GlcNAc(b1-2)Man(a1-6)]Man(b1-4)GlcNAc(b1-4)[Fuc(a1-6)]GlcNAc
# Method in brief: as §1
# [31] = molecular target: Gal(b1-4)GlcNAc(b1-3)Gal(b1-4)GlcNAc(b1-2)[Gal(b1-4)GlcNAc(b1-3)Gal(b1-4)GlcNAc(b1-6)]Man(a1-6)[Gal(b1-4)GlcNAc(b1-3)Gal(b1-4)GlcNAc(b1-2)Man(a1-3)]Man(b1-4)GlcNAc(b1-4)GlcNAc
# Method in brief: as §1
# [32] = molecular target: Gal(b1-4)GlcNAc(b1-3)Gal(b1-4)GlcNAc(b1-2)[Gal(b1-4)GlcNAc(b1-3)Gal(b1-4)GlcNAc(b1-6)]Man(a1-6)[Gal(b1-4)GlcNAc(b1-3)Gal(b1-4)GlcNAc(b1-2)Man(a1-3)]Man(b1-4)GlcNAc(b1-4)[Fuc(a1-6)]GlcNAc
# Method in brief: as §1
# [33] = molecular target: Gal(b1-4)GlcNAc(b1-3)Gal(b1-4)GlcNAc(b1-3)Gal(b1-4)GlcNAc
# Method in brief: as §1
# [34] = molecular target: Gal(b1-4)GlcNAc(b1-3)Gal(b1-4)GlcNAc(b1-3)Gal(b1-4)GlcNAc(b1-2)Man(a1-3)[Gal(b1-4)GlcNAc(b1-3)Gal(b1-4)GlcNAc(b1-3)Gal(b1-4)GlcNAc(b1-2)Man(a1-6)]Man(b1-4)GlcNAc(b1-4)GlcNAc
# Method in brief: as §1
# [35] = molecular target: Gal(b1-4)GlcNAc(b1-3)Gal(b1-4)GlcNAc(b1-3)Gal(b1-4)GlcNAc(b1-2)Man(a1-3)[Gal(b1-4)GlcNAc(b1-3)Gal(b1-4)GlcNAc(b1-3)Gal(b1-4)GlcNAc(b1-2)Man(a1-6)]Man(b1-4)GlcNAc(b1-4)[Fuc(a1-6)]GlcNAc
# Method in brief: as §1
# [36] = molecular target: Gal(b1-4)GlcNAc(b1-3)Gal(b1-4)GlcNAc(b1-3)Gal(b1-4)GlcNAc(b1-2)[Gal(b1-4)GlcNAc(b1-3)Gal(b1-4)GlcNAc(b1-3)Gal(b1-4)GlcNAc(b1-6)]Man(a1-6)[Gal(b1-4)GlcNAc(b1-3)Gal(b1-4)GlcNAc(b1-3)Gal(b1-4)GlcNAc(b1-2)Man(a1-3)]Man(b1-4)GlcNAc(b1-4)[Fuc(a1-6)]GlcNAc
# Method in brief: as §1
# [37] = molecular target: Gal(b1-4)GlcNAc(b1-3)Gal(b1-4)GlcNAc(b1-3)Gal(b1-4)GlcNAc(b1-3)Gal(b1-4)GlcNAc(b1-2)Man(a1-3)[Gal(b1-4)GlcNAc(b1-3)Gal(b1-4)GlcNAc(b1-3)Gal(b1-4)GlcNAc(b1-3)Gal(b1-4)GlcNAc(b1-2)Man(a1-6)]Man(b1-4)GlcNAc(b1-4)GlcNAc
# Method in brief: as §1
binder,measurement,setting,value
B1,glycan array binding signal (z-score),[1],-0.278
same,glycan array binding signal (z-score),[2],0.008
same,glycan array binding signal (z-score),[3],-0.278
same,glycan array binding signal (z-score),[4],-0.208
same,glycan array binding signal (z-score),[5],-0.261
same,glycan array binding signal (z-score),[6],-0.24
same,glycan array binding signal (z-score),[7],0.095
same,glycan array binding signal (z-score),[8],0.272
same,glycan array binding signal (z-score),[9],0.887
same,glycan array binding signal (z-score),[10],-0.272
same,glycan array binding signal (z-score),[11],0.478
same,glycan array binding signal (z-score),[12],-0.265
same,glycan array binding signal (z-score),[13],-0.408
same,glycan array binding signal (z-score),[14],-0.54
same,glycan array binding signal (z-score),[15],0.643
same,glycan array binding signal (z-score),[16],0.071
same,glycan array binding signal (z-score),[17],-0.294
same,glycan array binding signal (z-score),[18],-0.304
same,glycan array binding signal (z-score),[19],-0.115
same,glycan array binding signal (z-score),[20],3.87
same,glycan array binding signal (z-score),[21],-0.168
same,glycan array binding signal (z-score),[22],-0.202
same,glycan array binding signal (z-score),[23],-0.253
same,glycan array binding signal (z-score),[24],-0.015
same,glycan array binding signal (z-score),[25],0.063
same,glycan array binding signal (z-score),[26],-0.16
same,glycan array binding signal (z-score),[27],0.067
same,glycan array binding signal (z-score),[28],-0.355
same,glycan array binding signal (z-score),[29],1.38
same,glycan array binding signal (z-score),[30],4.03
same,glycan array binding signal (z-score),[31],4.11
same,glycan array binding signal (z-score),[32],0.091
same,glycan array binding signal (z-score),[33],-0.142
same,glycan array binding signal (z-score),[34],1.72
same,glycan array binding signal (z-score),[35],1.17
same,glycan array binding signal (z-score),[36],0.18
same,glycan array binding signal (z-score),[37],16.7
